# Data taken from article PMC6919601, “Identification of Plasmodium dipeptidyl aminopeptidase allosteric inhibitors by high throughput screening” (PLoS ONE, 2019).
# About 230 (0.21%) of roughly 110,000 compounds showed an effect of 50% or more. Some of the results follow.
# Molecular target: DPAP1 (Plasmodium falciparum, UniProt Q8IIJ9)
# Assay: primary screen, percent inhibition; read by cleavage of a fluorogenic dipeptide substrate; higher = more effect of the substance
# Set-up: species or system P. falciparum D10 trophozoite lysates; single well
# 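Further: 30 min substrate incubation versus DMSO and 10 µM JCP410 controls.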
# Sequence of DPAP1 (Q8IIJ9 whole entry, looked up): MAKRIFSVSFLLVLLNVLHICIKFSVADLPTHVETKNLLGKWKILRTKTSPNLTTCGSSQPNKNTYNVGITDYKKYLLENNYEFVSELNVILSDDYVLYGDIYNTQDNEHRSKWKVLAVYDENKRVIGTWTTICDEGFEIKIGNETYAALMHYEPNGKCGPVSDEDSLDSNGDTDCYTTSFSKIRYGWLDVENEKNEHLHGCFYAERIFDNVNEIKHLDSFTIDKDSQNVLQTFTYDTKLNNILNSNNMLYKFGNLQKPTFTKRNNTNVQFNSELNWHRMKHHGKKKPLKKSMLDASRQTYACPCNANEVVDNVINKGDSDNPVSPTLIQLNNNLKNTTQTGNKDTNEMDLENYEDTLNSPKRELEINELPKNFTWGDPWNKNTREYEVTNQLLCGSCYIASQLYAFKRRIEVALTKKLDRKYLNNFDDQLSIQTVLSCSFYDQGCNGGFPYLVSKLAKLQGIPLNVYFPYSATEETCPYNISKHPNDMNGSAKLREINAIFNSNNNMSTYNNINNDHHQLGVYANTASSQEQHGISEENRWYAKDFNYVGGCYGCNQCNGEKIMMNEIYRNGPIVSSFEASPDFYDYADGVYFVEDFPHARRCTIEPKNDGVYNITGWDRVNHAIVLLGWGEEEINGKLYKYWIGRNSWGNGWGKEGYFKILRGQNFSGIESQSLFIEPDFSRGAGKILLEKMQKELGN
row,Structure (SMILES),% Inhibition @ 10 uM [%]
1,CC(C)COc1cccc(-c2cc(C(=O)Nc3ccon3)c3ccccc3n2)c1,-1.1
2,c1ccc2c(Cn3ccnc3)c[nH]c2c1,-0.0404
3,CCCC1=NCCn2cccc21,1.54
4,COc1ccc(C2C(=O)N(C3CCCCC3)CC(=O)N2Cc2ccc(C)cc2)cc1 (centres unmarked),1.27
5,O=C1NCCN/C1=C\C(=O)c1ccc(Cl)cc1,-6.29
6,COc1ccc(C(=O)Nc2nc(-c3ccc(Cl)cc3)cs2)c(OC)c1,-3.26
7,CCCC(=O)N1CC2(c3ccccc3)CN(C(=O)CCC)CC(c3ccccc3)(C1)C2=O,-5.33
8,O=C(NCc1ccccc1)N1CCC(CN2CCCCC2)CC1,0.66
9,CCNC(=O)CN(Cc1ccc(Br)cc1)S(=O)(=O)c1ccc(Cl)cc1,1.8
10,CCOC(=O)N1CCC(NCc2ccco2)CC1,-0.0953
11,CCOC(=O)c1c(NC(C)=O)sc2c1CCC2,1.74
12,COc1ccc2[nH]cc(CCNC(N)=O)c2c1,-3.65
13,O=C(NCc1cccnc1)c1cc(S(=O)(=O)N2CCCCC2)c[nH]1,-5.3
14,CCN(CC)c1ccc(NC(=O)c2ccc(Br)cc2)cc1,5.15
15,CC(=O)N1N=C(c2ccccc2)CC1c1ccc(Cl)cc1Cl (centres unmarked),3.74
16,CN(C)CCN(C)Cc1cccnc1,-4.58
17,COc1ccc(CCN2C(=O)C(O)=C(C(=O)c3ccco3)C2c2cccs2)cc1OC (centres unmarked),4.44
18,COc1ccc(-c2cn3cccc(C)c3n2)cc1Br,5.37
19,O=C(CN1N=C(c2ccccc2)CCC1=O)NCCCN1CCCCCC1,-4.83
20,CCOc1ccc(/C=C2\N=C(c3ccc(Cl)c(Cl)c3)OC2=O)cc1,-4.5
21,C#CCOc1c(Br)cc(/C=C2/NC(=O)N(Cc3ccccc3F)C2=O)cc1OC,-1.81
22,CCOc1ccc(NC(=O)C(C)Oc2ccccc2)cc1 (centres unmarked),-5

row,Structure (SMILES),% Inhibition @ 10 uM [%]
1,O=C(C1CC2CCC1C2)N1CCN(c2cccc(Cl)c2)CC1 (centres unmarked),2.05
2,CC(C)c1ccc(NC(=O)C2CCCN2S(=O)(=O)c2ccc(Cl)cc2)cc1 (centres unmarked),5.17
3,Cc1[nH]nc2c1C(c1cccc(OCc3ccc(F)cc3)c1)C(C#N)=C(N)O2 (centres unmarked),-0.68
4,CCOc1ccccc1C1/C(=C(\O)OC2CCCCC2)C(C)=Nc2ncnn21 (centres unmarked),2.97
5,N#Cc1nc(/C=C/c2ccc(F)cc2)oc1NCC1CCCO1 (centres unmarked),-0.808
6,Cc1ccc(Cn2cc(CCCC(=O)N3CCOCC3)c3ccccc32)cc1,11
7,CCSC1=C(C#N)C(c2ccccc2OC)C(C(=O)OC)C(=O)N1 (centres unmarked),2.05
8,CC(=O)c1cccc(NC(=O)C23CCC(C)(c4nc5ccccc5nc42)C3(C)C)c1 (centres unmarked),-4.22
9,CC(NC(=O)C12CC3CC(C1)CC(n1cncn1)(C3)C2)C12CC3CC(CC(C3)C1)C2 (centres unmarked),43.3
10,COc1ccc(C2CC(=O)C(/C=N/Cc3ccc(Cl)c(Cl)c3)=C(O)C2)cc1 (centres unmarked),0.851
11,CCN(CC)c1ccc2c(C)c([N+](=O)[O-])c(=O)oc2c1,-4.31
12,CC(C)CS(=O)(=O)C1=NSC2=NC(=O)/C(=C\c3ccc(O)cc3)C(=N)N21,-1.58
13,CN(Cc1ccccc1)C(=O)c1cnn2c1NC(c1cccs1)CC2C(F)(F)F (centres unmarked),1.8
14,CCc1ccc2occ(CC(=O)Nc3sc4c(c3C(=O)NCc3cccnc3)CCC4)c2c1,1
15,NC(=O)C1CCN(Cc2c(F)cccc2F)CC1,-5.31
16,CC1(C)CC(=O)C(/C=N/Cc2cccnc2)=C(O)C1,4.54
17,C=CCNc1cc(C)nc2nncn12,-1.02
18,CC(=O)c1ccc2c(c1)Cc1cc(C(C)=O)ccc1-2,-4.06
19,CCCCNC(=O)NC(=O)c1c(Cl)cc(Cl)nc1Cl,0.503
20,CC(=O)Nc1cccc(NC(=O)c2cccc(NC(=O)c3ccccc3)c2)c1,-3.1
21,C1CN(C2CN3CCC2CC3)CCO1 (centres unmarked),1.57
22,CCOc1cc(C2N=C(N)Nc3nc4ccccc4n32)ccc1O (centres unmarked),4.94

row,Structure (SMILES),% Inhibition @ 10 uM [%]
1,Cc1cc(NC(=O)CN2CCCCC2)c2ccccc2n1,0.266
2,Cc1oc(-c2ccc(Cl)cc2)nc1CN1CCC(C(=O)NCCN(C)C)CC1,2.37
3,CC(=O)/C(=C\c1ccccc1)S(=O)(=O)c1ccccc1,4.39
4,O=C(NCC1CCCO1)c1cc2n(n1)C(C(F)(F)F)CC(c1ccc(Br)cc1)N2 (centres unmarked),-3.63
5,CC1(C)CC(=O)C2=C(C1)N(c1cccc(Br)c1)C(N)=C(C#N)C2c1ccsc1 (centres unmarked),0.726
6,CC(C)c1ccc(C2c3c(oc4ccccc4c3=O)C(=O)N2CCCN2CCOCC2)cc1 (centres unmarked),3.93
7,CS(=O)(=O)CCC(C(=O)N1CCOCC1)N1Cc2ccccc2C1=O (centres unmarked),-2.41
8,CCOCCCNC(=O)C1CC(=O)N(CCc2ccccc2)C1 (centres unmarked),-0.0542
9,Cc1ccc(C(=O)N/C(=C/c2ccc(-c3ccc(Cl)cc3)o2)C(=O)NCCO)cc1,2.45
10,CC1=C(C(=O)OCCC(C)C)C(c2ccccc2Cl)NC(=O)N1 (centres unmarked),5.92
11,CCc1ccc2nc(N)sc2c1,8.71
12,COC(=O)c1cc2sccc2n1Cc1cc(=O)n2ccccc2n1,-7.84
13,CCOc1ccc([N+]2=C3CCCCN3C(O)(c3ccc(Cl)cc3)C2)cc1 (centres unmarked),4.92
14,CCOC(=O)N1CCN(C(=O)Cn2cc3c(n2)-c2c(oc(C(=O)N4CCCC4)c2C)CC3)CC1,0.335
15,CCn1cc2c(n1)-c1c(oc(C(=O)NCc3cccc(Br)c3)c1C)CC2,13.8
16,Brc1ccc2[nH]cc(-c3nnc4ccc5ccccc5n34)c2c1,3.65
17,Cc1cc(Cl)ccc1NC(=O)c1ccc(CN2CCOCC2)cc1,-5.99
18,CC1CCN(C(=O)Cn2ncn3c(cc4sccc43)c2=O)CC1,0.137
19,c1ccc2cc(-c3cn4ccsc4n3)ccc2c1,-4.03
20,COc1ccccc1N1CCN(CCCCN2C(=O)C3CCCCN3C2=O)CC1 (centres unmarked),1.39
21,CCOc1ccccc1NC(=O)c1c(Cl)c(C)nn1C,-1.07
